In all, about 81,000 sequences were measured (“one-hybrid fitness for binding parS DNA”: median about -0.17, highest 2% from about 0.51 on). This is one part of the list.
B1: Caulobacter ParB omega fusion; a variant is named by its letters at X, in order, B8GW30 (parent)
chain: MESVVVGEPGMSEGRRGLGRGLSALLGEVDAAPAQAPGEQLGGSREAPIEILQRNPDQPRRTFREEDLEDLSNSIREKGVLQPILVRPSPDTAGEYQIVAGERAWRAAQRAGLKTVPIMVRELDDLAVLEIGIIENVQRADLNVLEEALSYKVLMEKFERTQENIAQTIGKSXSHVANXMRLLXLPDEVQSYLVSGELTAXHARAIAAAADPVALAKQIIEGGLSVRETEALARKAPNLSAGKSKGGRPPRVKDTDTQALESDLSSVLGLDVSIDHRGSTGTLTITYATLEQLDDLCNRLTRGI

Variants of: B1
Test: one-hybrid fitness for binding parS DNA (scaled: cognate 1, non-cognate 0); higher = stronger binding
Details: with parS DNA site
Procedure, shortened: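 Bacterial one-hybrid selection in E. coli USO rpoZ- hisB- pyrF- with a HIS3 reporter carrying the site 19 bp from the promoter, screening Caulobacter ParB libraries with four specificity codons randomised (NNS). Cells grew 48 hours at 37°C on M9-minus-histidine plus 0.1 mM IPTG and 5 mM 3-AT. Plasmids before and after selection were Illumina-sequenced, three replicate libraries pooled, and variants under 10 reads dropped. Fitness is the log change in variant-to-wild-type read ratio, rescaled to cognate 1, non-cognate 0.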

one-hybrid fitness for binding parS DNA, ≤ 0.2:
EDPM
CRNR
PNAS
YAWT
LPHR
RDAC
RKVI
QLNP
QCLM
EAEA
CLPC
YLLG
RNRQ
PCNI
YGIL
ELQA
NAQT
TRQD
PMNA
MNQT
IEHG
PSKH
YYTG
YHST
SGRT
VIWL
RQEW
HVKL
TPAW
PVTM
KFHS
YMVV
VFSR
ARNM
RRCD
KYVC
VVTM
TDIW
LYES
NARC
ATPQ
HTPW
QHNN
PTVD
EEMR
IRGL
WTFV
TPWC
HKIY
HKIR
QELW
DYAT
KRER
QNKG
TYPM
RPIA
NMHS
QHYQ
PRDI
FPMV
FATV
IFEL
PCKY
QLIG
MYCS
SECT
QGDS
IATR
IRAR
SLHD
MKCL
SMSA
WKFG
NCPT
WRSG
TEWL
VLLE
ATKV
NRPC
PMNY
RWNW
REIE
KGAS
SAVE

— a collection of fitness landscapes (doi:10.1016/j.celrep.2020.107928)
